Measured values from publication PMC6919601, “Identification of Plasmodium dipeptidyl aminopeptidase allosteric inhibitors by high throughput screening” (PLoS ONE, 2019).
Several values for one entry are separate records, joined by “and”; a condition that tells them apart may be missing. Identical values can stand only once. Out of some 110,000 compounds screened, about 230 (0.21%) showed an effect of 50% or more. Some of the results follow.

Each compound was assayed against DPAP1 (Plasmodium falciparum, UniProt Q8IIJ9) (assay: primary screen, percent inhibition; read by cleavage of a fluorogenic dipeptide substrate; higher = more effect of the substance).
Parameters: species or system P. falciparum D10 trophozoite lysates; single well
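Note: 30 min substrate incubation versus DMSO and 10 µM JCP410 controls.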

Sequence of DPAP1 (Q8IIJ9 whole entry, looked up): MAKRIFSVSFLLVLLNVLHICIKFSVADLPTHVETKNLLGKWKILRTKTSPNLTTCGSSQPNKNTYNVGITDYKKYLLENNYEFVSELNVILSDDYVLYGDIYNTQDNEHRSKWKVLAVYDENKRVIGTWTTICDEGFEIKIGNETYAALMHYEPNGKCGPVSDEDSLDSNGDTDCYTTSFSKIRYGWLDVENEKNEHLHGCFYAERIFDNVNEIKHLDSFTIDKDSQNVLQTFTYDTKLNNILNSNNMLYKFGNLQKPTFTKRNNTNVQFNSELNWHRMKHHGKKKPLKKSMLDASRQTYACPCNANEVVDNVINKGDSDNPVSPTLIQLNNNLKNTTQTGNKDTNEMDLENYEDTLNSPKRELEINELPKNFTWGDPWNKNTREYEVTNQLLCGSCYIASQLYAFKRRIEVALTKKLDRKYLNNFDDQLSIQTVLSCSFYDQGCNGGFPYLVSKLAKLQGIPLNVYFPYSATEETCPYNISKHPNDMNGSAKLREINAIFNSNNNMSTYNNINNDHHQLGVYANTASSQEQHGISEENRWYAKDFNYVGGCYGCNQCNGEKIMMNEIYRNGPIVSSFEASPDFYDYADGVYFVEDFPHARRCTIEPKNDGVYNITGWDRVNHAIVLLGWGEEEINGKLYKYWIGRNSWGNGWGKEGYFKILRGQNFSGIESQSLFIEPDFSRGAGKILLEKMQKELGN

| Compound | % Inhibition @ 10 uM |
| --- | --- |
| O=C(O)c1cccc2c1C(=O)c1cc(Cl)ccc1-2 | -10% |
| CC(C)(C)C1CCC(N2CCN(c3ccccc3F)CC2)CC1 (centres unmarked) | -5.44% |
| COc1ccc(C(=O)Nc2nc3n(n2)C(c2ccccc2)CC(=O)N3)cc1 (centres unmarked) | 1.31% |
| CCN1C(=O)C(CC(=O)Nc2cc(C)ccc2C)S/C1=N\c1cccc(OC)c1 (centres unmarked) | -1.26% |
| O=C(NCCc1ccccc1)c1ccc2c(O)c(S(=O)(=O)c3ccc(Cl)cc3)c(O)nc2c1 | 5.55% |
| Cc1ccc(OCC(=O)Nc2cccc(NC(=O)c3ccccc3)c2)cc1C | -8.49% |
| CCCCNC(=O)CN1N=C(c2ccccc2)CCC1=O | 3.79% |
| Cc1ccc(C)c(Cn2c3ccccc3c3cnn(CC(=O)NCc4ccccn4)c(=O)c32)c1 | 3.4% |
| Cc1ccc(C(=O)Nc2cc3c(oc2=O)CC(C)(C)CC3=O)cc1 | 0.221% |
| CCN1CCN(c2c(C(=O)c3ccccc3)cnc3cc4c(cc23)OCCO4)CC1 | 2.98% |
| O=C(NCCc1nc(-c2ccccc2)cs1)c1ccccc1 | 1.89% |
| COc1ccc(-n2nc3c(c2NC(=O)c2ccc(S(=O)(=O)N(C)C)cc2)CS(=O)(=O)C3)cc1 | 6.18% |
| CCOc1ccc(CNC(=O)C2CCC(=O)N2C2CCCC2)cc1OC (centres unmarked) | 2.18% |
| O=C(NCCc1ccccc1)c1cccnn1 | -1.05% |
| CCCCNCC(O)COc1ccc(Cl)c(C)c1 (centres unmarked) | 2.6% |
| Cn1c(=O)c(C(=O)Nc2nc(-c3ccc(Cl)cc3)cs2)c(O)c2ccccc21 | -0.622% |
| Cc1ccc(C(=O)O/N=C(\N)Cc2cccs2)c(Cl)c1 | 5.17% |
| O=C(CSc1nc2c(sc3ccccc32)c(=O)n1CC1CCCO1)NCc1ccccc1 (centres unmarked) | 6.94% |
| CCCCC(=O)c1c(C)cc(C)nc1O | 0.177% |
| Cc1cc(O)nc(SCc2nc(-c3cccs3)no2)n1 | 3.93% |
| CC[C@H](C)[C@H](NC(=O)Cc1ccncc1)C(=O)N[C@@H](CCc1ccccc1)C(=O)CO | -4.17% |
| CCOC(=O)c1c(C)[nH]c(C)c1S(=O)(=O)NC1CCN(C(=O)OCC)CC1 | -0.342% |
| Cc1ccccc1CS(=O)(=O)CCC(=O)O | -2.14% |
| Cc1cccnc1NC(=O)C(C)N1C(=O)c2ccccc2C1=O (centres unmarked) | 3.04% |
| CCOC(=O)C1=C(C)OC(N)=C(C#N)C1c1c(Cl)cccc1Cl (centres unmarked) | 19.2% |

| Compound | % Inhibition @ 10 uM |
| --- | --- |
| COc1cccc(-c2nc(SCc3ccc(Br)cc3)n3[nH]c(=O)cc3n2)c1 | -2.85% |
| COc1ccc(-c2cc(C(F)(F)F)n3ncc(C(=O)NCc4ccco4)c3n2)cc1OC | 2.94% |
| CCOC(=O)c1cnc2nc(NC(=O)c3ccc(F)cc3)nn2c1O | -4.91% |
| OCC1CCCN(Cc2ccc(F)cc2F)C1 (centres unmarked) | -4.15% |
| COc1c(C(=O)N[C@@H](CC(C)C)C(=O)NCC#N)csc1-c1ccccc1C | 3.19% |
| Cc1cc(=O)n2nc(N3CCCC(C(=O)NC(C)CCc4ccccc4)C3)sc2n1 (centres unmarked) | -3.79% |
| Cc1cccc(CCNC(=O)c2cc(S(=O)(=O)N3CCCC3)cn2C)c1 | 1.1% |
| COc1ccc(N2CCN(S(=O)(=O)c3ccc(Br)s3)CC2)cc1 | -0.469% |
| COc1ccc(S(=O)(=O)Cc2ccc(C(=O)NCCc3cc(OC)ccc3OC)o2)cc1 | 0.238% |
| O=C(O)c1cc(Cl)c(Cl)cc1C(=O)N1CCCCC1 | -2.54% |
| CN(CCNC(=O)C1CCN(c2ncnc3c2nc2n3CCCCC2)CC1)C1CCCCC1 | 2.82% |
| O=C(O)c1ccc(CN2CCCCCCC2)cc1 | -1.98% |
| C=CCC1(O)C(=O)N2C(=C1C(=O)N1CCCCC1)c1ccccc1CC2(C)C (centres unmarked) | 2.43% |
| CCOc1ccc(/C=C2/SC(=O)N(CN3CCCCC3)C2=O)cc1OCC | 5.79% |
| Oc1nc(/C=C/c2ccc3c(c2)OCO3)cc(C(F)(F)F)n1 | -0.414% and -6.7% |
| Cc1ccccc1C(=O)N1CCC2(CC1)N=C(c1ccc(C(C)(C)C)cc1)C(=O)N2 | 4.17% |
| Cc1ccc(N2CC(C(=O)Nc3cc(C(F)(F)F)ccc3Cl)CC2=O)cc1 (centres unmarked) | 10.5% |
| N#Cc1c(N)sc2c1CCN(Cc1ccccc1)C2 | 2.7% |
| CCOc1ccc(C(=O)Nc2c(C)cccc2C)cc1 | -2.17% |
| CC(C)(O)C#Cc1ccc(C(=O)N2CCN(c3ccccc3F)CC2)cc1 | 3.06% |
| Cc1sc2c(c1C)CN(C1CC(C)(C)NC(C)(C)C1)CN2C(=O)c1ccco1 | 14.3% |
| Cc1cccc(N(CC(=O)NCc2ccco2)S(=O)(=O)c2ccccc2)c1C | -0.473% |
| COc1cc2ncc(S(=O)(=O)c3ccc(Cl)cc3)c(N3CCC(C(N)=O)CC3)c2cc1OC | -0.405% |
| COc1ccc(CCNS(=O)(=O)c2csc(C(N)=O)c2)cc1OC | 2.18% |
| Cc1cccc(OCC(=O)Nc2nc[nH]n2)c1C | -0.142% |
